# The supplement of paper PMC3334620
# Over roughly 33,000 sequences, “E-score (-0.5 to 0.5)” has its median near -0.043; the highest 2% begin near 0.37. This is one part of the list.
# Molecular target: T1, Upc2 (UniProt Q12151)
# T1 sequence: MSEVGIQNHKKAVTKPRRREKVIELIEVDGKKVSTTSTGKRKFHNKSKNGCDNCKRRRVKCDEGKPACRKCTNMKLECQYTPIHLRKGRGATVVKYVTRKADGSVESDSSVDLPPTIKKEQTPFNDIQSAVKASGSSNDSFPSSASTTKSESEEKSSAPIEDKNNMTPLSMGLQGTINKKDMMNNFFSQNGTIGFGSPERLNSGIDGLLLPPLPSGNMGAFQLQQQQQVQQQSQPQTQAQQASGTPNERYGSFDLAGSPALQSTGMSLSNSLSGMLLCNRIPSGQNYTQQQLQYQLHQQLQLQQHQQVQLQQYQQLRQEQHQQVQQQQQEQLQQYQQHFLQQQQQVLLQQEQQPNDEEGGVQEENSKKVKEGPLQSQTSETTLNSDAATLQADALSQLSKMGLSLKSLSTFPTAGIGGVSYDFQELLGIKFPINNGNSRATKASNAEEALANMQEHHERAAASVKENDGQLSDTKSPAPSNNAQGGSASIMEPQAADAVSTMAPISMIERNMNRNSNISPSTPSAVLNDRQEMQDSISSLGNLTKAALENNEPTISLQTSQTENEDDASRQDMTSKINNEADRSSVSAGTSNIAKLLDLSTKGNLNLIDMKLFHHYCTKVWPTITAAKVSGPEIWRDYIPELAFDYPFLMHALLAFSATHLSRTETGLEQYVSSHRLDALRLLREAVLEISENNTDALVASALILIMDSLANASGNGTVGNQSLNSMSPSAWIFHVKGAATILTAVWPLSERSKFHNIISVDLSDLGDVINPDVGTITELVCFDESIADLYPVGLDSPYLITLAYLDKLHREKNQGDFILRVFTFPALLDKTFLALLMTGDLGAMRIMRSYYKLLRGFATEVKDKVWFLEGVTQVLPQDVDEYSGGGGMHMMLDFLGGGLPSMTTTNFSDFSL
# Assay: PBM E-score (8-mer binding enrichment) (E-score (-0.5 to 0.5)); higher = stronger / more preferred TF binding; most listed sequences are background and not binding sites
# Details: protein concentration: 200 nM; construct: GST-full length
# How it was run: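 For each ungapped eight-base word taken together with its reverse complement, the Universal PBM Analysis Suite assigned an E-score. Binding data came from GST-tagged yeast transcription factors, applied at about 100-200 nM, on universal all-10-mer Agilent arrays made double-stranded by primer extension. Fluorescent anti-GST marked bound protein, and scans were normalised with masliner.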
row,Sequence,PBM E-score
1,AAACGATG,0.458
2,TAGCTGCA,-0.103
3,ATATGGGC,-0.115
4,GCTCAGAC,-0.0917
5,AACCCGTT,0.204
6,ACTCGAGT,0.13
7,CACCCAGC,-0.127
8,AGAATGAA,0.0894
9,TAGTTGGA,-0.109
10,TCGGCTAA,0.163
11,AGACGGTA,-0.026
12,GAAGCTCA,-0.213
13,CGCCTCCC,-0.104
14,AGGCAGCC,-0.0618
15,AAAACGGG,0.255
16,AATTGGGG,-0.00677
17,AGATCCTG,-0.161
18,CAGTACCA,-0.0443
19,GTTACGCA,0.183
20,CCGCATCA,-0.168
21,CAGTGGAA,-0.306
22,CCTTAACC,-0.163
23,CGGATACA,0.201
24,AATTGACG,0.0233
25,ACGATTAC,0.303

row,Sequence,PBM E-score
1,GATTAGGC,0.0189
2,CATGGCCA,-0.34
3,CCAGAGCA,-0.219
4,ATGATCGC,-0.023
5,CCCCTCTC,-0.185
6,AGCGGGAA,0.0721
7,ATGACACA,-0.0132
8,CTTCCTCA,-0.178
9,AATTGATA,0.0661
10,GCCTGAGA,-0.254
11,AAGAACTC,0.126
12,ATGTCATG,-0.0317
13,GCAAGCAC,-0.17
14,TATACACA,0.191
15,CGAGACCA,0.151
16,CGTCACAA,0.0951
17,ATTCGTAA,0.399
18,GATACCGC,-0.0629
19,ATCATGTA,0.013
20,CAGTTAGA,-0.121
21,CTACAAGC,-0.017
22,GGTAGCGA,0.0627
23,CTCGTTCC,0.479
24,ACAAAATG,-0.0712
25,ATACGCTG,0.315

row,Sequence,PBM E-score
1,ATTCTATA,0.177
2,TCCTATCA,-0.224
3,CATGGGCG,-0.106
4,CTAAGGTC,-0.109
5,GGACGAGA,-0.00291
6,CTACCTAG,-0.225
7,AAGGTAAT,0.0547
8,CGAGGGAC,0.169
9,AACTGGCG,-0.217
10,AATATTTC,0.178
11,AGTTTGCG,0.0449
12,TAGGAGCA,-0.304
13,CTGCCCTA,-0.289
14,AAGAATGG,-0.163
15,CGATCGTA,0.437
16,GATGTCGA,-0.0548
17,CTAAGCCC,-0.25
18,CAATCTCA,-0.0468
19,AAACCAGT,-0.00579
20,CGGCCGCA,-0.11
21,AACTCCAT,-0.187
22,GCGGTTCC,0.103
23,AAACGCGT,0.343
24,GCAGCCAC,-0.0673
25,ATACTCCA,-0.0309

row,Sequence,PBM E-score
1,ACCCTGTG,-0.104
2,CCCGGTTA,0.115
3,CGAACTCA,0.0312
4,GCACGACA,0.0592
5,TCGAGAGA,0.0401
6,ACGGAATC,0.0206
7,AAAAGTCG,0.0379
8,GTGATTAA,-0.147
9,GATTCTAC,0.026
10,CTTTAGTA,-0.0146
11,AGCTGTGA,-0.0873
12,AAGTACTC,0.173
13,CAATAGTA,-0.159
14,AAATCCAG,0.0971
15,GTTCGTAA,0.424
16,GTTGTCCA,0.0403
17,AGAATGAT,-0.0518
18,AGATTAGC,-0.103
19,GTGCAGAA,0.202
20,AGAGACAG,-0.21
21,GAGTCCTA,-0.202
22,ATAGGGTA,0.138
23,AACTCCAC,0.00868
24,AAGGTCAA,-0.257
25,GCAGAGCA,-0.151

row,Sequence,PBM E-score
1,CTTGCGAC,0.0211
2,ATTTGGAA,-0.194
3,TAATTCCA,0.0033
4,CTAGGATC,-0.0545
5,GACCAGGC,-0.226
6,ACGCTTAT,0.00951
7,CGGCGATC,0.071
8,CCGGCAGA,-0.14
9,GCGCCGGA,-0.0152
10,GCTTAACA,-0.0625
11,CGGCCCCA,-0.152
12,ATCGAGCC,0.0281
13,TCGGTGCA,-0.104
14,CTCACATA,-0.0801
15,TAGTGGAA,-0.215
16,TGAAGGCA,-0.0834
17,CATGCATA,-0.0583
18,AAGGGAAG,-0.153
19,CTTGGTCC,-0.182
20,CACAACAG,-0.204
21,AGAATACG,0.315
22,GAACACAC,0.00893
23,CAGCAGGA,-0.306
24,AACCGGGA,0.0691
25,AAAGGTTC,0.00774

row,Sequence,PBM E-score
1,TCAGTGCA,-0.225
2,CAATGGTC,-0.0992
3,CAAATCCG,-0.0244
4,AAAGCATT,-0.0804
5,CCATGCAA,-0.14
6,GCGACTAC,0.0157
7,ACAACTCC,-0.117
8,ACTGGCTG,-0.0756
9,GGGGGACC,-0.308
10,CGATCTAA,-0.0262
11,AACCCAGT,-0.0129
12,AAGGTGTA,-0.00282
13,CACTGCCA,-0.0268
14,ATCCGGGG,-0.0936
15,AATTAACA,0.006
16,TGGCGACA,0.0714
17,TAAAACTA,0.0863
18,AGAAGTTC,-0.151
19,CTATACGC,0.458
20,CTGCTTCC,-0.119
21,GTCGAAAA,0.145
22,ATAATGGC,-0.0203
23,AATGCTCC,-0.293
24,CAACCTAG,-0.185
25,AGCCTGGG,-0.139

row,Sequence,PBM E-score
1,CAGTCCCA,-0.256
2,CCAGTTAC,-0.21
3,ATCCCAGG,-0.338
4,CCTAAAAA,-0.119
5,TGGCAAAA,-0.0725
6,ACAATTAT,0.146
7,ATTTGTGG,-0.133
8,ACCAGACT,-0.0707
9,ACGAAGTG,0.329
10,CTTAAATC,-0.0293
11,TCAAGTAA,-0.135
12,GCGTTCAA,0.173
13,ATAAGCCG,-0.18
14,CTCGTTCA,0.476
15,ACATAGCG,-0.165
16,CTTTGCAC,-0.022
17,CAGGAGAC,-0.0559
18,GCATCCTA,-0.0326
19,ACAGCCTA,-0.103
20,ATCAACTG,-0.177
21,AAGAGGTC,-0.186
22,GCCGTTAA,0.292
23,CCCGTCGG,0.0352
24,GTTCACTA,0.224
25,CAATTGCG,-0.143

row,Sequence,PBM E-score
1,AATGTTCC,-0.181
2,AGGTCATC,0.0599
3,GCCCCAAC,-0.00923
4,GAAGAGCC,-0.145
5,AGTCCGTA,0.32
6,CCCCTATC,-0.118
7,ACCGCACG,0.0511
8,ACTCGCAC,0.0893
9,ATATAGTG,0.0967
10,ATGGTGTC,-0.132
11,ACGATTCC,0.299
12,CAATGGGA,-0.161
13,ATGGTATC,0.15
14,GTTATTGA,0.0213
15,ATTCGTCA,-0.00206
16,ACCCTGAC,-0.296
17,GGATCTGA,-0.0319
18,AGTATCTA,-0.0866
19,CCTTAGGC,-0.0987
20,AGTGTGCG,-0.0036
21,CCGCTGTA,-0.259
22,CGCCCACG,-0.0104
23,CAATCGCA,0.0411
24,ACGACTCA,0.29
25,GTCACTTA,0.0983

row,Sequence,PBM E-score
1,ATGGGCCG,-0.21
2,TTAATTAA,-0.0855
3,GACGCATC,-0.014
4,CGCCTAGA,0.139
5,CATAGGCA,-0.296
6,GGGAAGTA,-0.108
7,TCCCCGAA,-0.23
8,GGTCCTAA,0.0427
9,GTTGCAGA,-0.126
10,TTCTACAA,-0.0672
11,TCCCTTAA,-0.111
12,AAGATTAT,-0.0246
13,CCGGGTCC,-0.0974
14,TAATACAA,0.0208
15,GATTATTA,-0.0512
16,AATTTAGA,0.00026
17,AAATCCCA,-0.0654
18,CCAACCGC,-0.152
19,GGTGGCTA,-0.169
